Laboratory results taken from the supplement of paper PMC10369915.
This is one part of the list. No stated cut-off is given here; in the data, active = 3.2 or more and inactive = the rest. Only a few entries rise above the background.

B1: GPX2_Y125_P126L_YF (peptide)
chain: KDKLPYLFDDP
B2: GREB1L_Y1560_R1558S (peptide)
chain: PLYSKYWPNHI
B3: GPR143_Y177_A173D_YF (peptide)
chain: GDAMLYFPSVS
B4: GRIA3_Y705 (peptide)
chain: EKMWSYMKSAE
B5: GPX2_Y127_YF (peptide)
chain: KLPFPYDDPFS
B6: GRIN2A_Y281 (peptide)
chain: LISVSYDDWDY
B7: GRIN2A_Y281_S278F_YF (peptide)
chain: LIFVSYDDWDF
B8: GRIN2A_Y281_YF (peptide)
chain: LISVSYDDWDF
B9: GNE_Y197_I200F (peptide)
chain: AKNKDYMSFIR
B10: GNAS_Y391 (peptide)
chain: MHLRQYELLGG
B11: GPI_Y17 (peptide)
chain: KLQQWYREHRS
B12: GPR143_Y177_YF (peptide)
chain: GAAMLYFPSVS
B13: GRIN2A_Y730 (peptide)
chain: LDAFIYDAAVL
B14: GNPTAB_Y728_K732N (peptide)
chain: ITLKGYNLSNS
B15: GNB1_Y111_A106T (peptide)
chain: TPSGNYVACGG
B16: GNAQ_Y356 (peptide)
chain: LNLKEYNLVGG
B17: GPAA1_Y49_S51L (peptide)
chain: LTQRTYMLENA
B18: GNPTAB_Y728 (peptide)
chain: ITLKGYNLSKS

target: SHP2 C-SH2 domain E139D; experiment: enrichment score (SH2-bound / input frequency) (ratio); bacterial display of known human phosphotyrosine sites (pTyr-Var adds point mutants) read by sequencing; higher = stronger binding; tyrosines were phosphorylated by kinases first; settings: peptide library: pTyr-Var
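Further: displayed peptides selected on beads carrying the immobilized SH2 domain, with library peptides lacking any tyrosine serving as negative controls.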

Enrichment score, inactive:
B1 0.368
B2 1.19
B3 1.01
B4 1.13
B5 1.05
B6 2.02
B8 1.47
B9 0.837
B10 1.19
B11 2.38
B12 0.989
B13 0.785
B14 1.28
B15 0.666
B16 1.3
B17 1
B18 1.21

Enrichment score, active:
B7 3.95

target: SHP2 C-SH2 domain wild-type; experiment: as above; settings: peptide library: pTyr-Var

Enrichment score, active:
B7 3.42

Enrichment score, inactive:
B1 0.569
B2 0.979
B3 0.691
B4 0.82
B5 1.11
B6 1.58
B8 1.42
B9 0.79
B10 1.2
B11 1.92
B12 0.727
B13 0.97
B14 0.645
B15 0.737
B16 0.79
B17 0.95
B18 1.41

target: SHP2 N-SH2 domain L43F; experiment: as above; settings: peptide library: pTyr-Var

Enrichment score, active:
B7 4.35
B10 6.65

Enrichment score, inactive:
B1 0.51
B2 1.12
B3 0.765
B4 1.1
B5 0.763
B6 1.65
B8 1.73
B9 0.85
B11 2.25
B12 0.805
B13 0.958
B14 0.955
B15 0.869
B16 1.16
B17 1.1
B18 1.48

target: SHP2 N-SH2 domain T42A; experiment: as above; settings: peptide library: pTyr-Var

Enrichment score, inactive:
B1 0.532
B2 0.967
B3 0.781
B4 0.928
B5 1.54
B6 1.79
B7 2.89
B8 2.22
B9 0.652
B10 1.27
B11 1.65
B12 0.753
B13 0.849
B14 0.942
B15 0.673
B16 0.88
B17 0.612
B18 0.711

target: SHP2 N-SH2 domain T52S; experiment: as above; settings: peptide library: pTyr-Var

Enrichment score, inactive:
B1 0.62
B2 0.689
B3 0.76
B4 0.97
B5 0.809
B6 1.66
B8 1.47
B9 0.848
B11 2.18
B12 0.782
B13 1.14
B14 0.875
B15 0.784
B16 0.879
B17 0.854
B18 1.21

Enrichment score, active:
B7 3.89
B10 7.13

target: SHP2 N-SH2 domain wild-type; experiment: as above; settings: peptide library: pTyr-Var

Enrichment score, inactive:
B1 0.502
B2 1.12
B3 0.728
B4 0.75
B5 1.02
B6 1.99
B8 1.15
B9 0.687
B10 2.55
B11 2.04
B12 0.799
B13 1.03
B14 0.6
B15 0.924
B16 0.792
B17 1.06
B18 0.878

Enrichment score, active:
B7 3.42
